# In PubChem BioAssay AID651815 (National Center for Advancing Translational Sciences (NCATS), 2012):
# Hit rate of the full screen: of about 2,100 compounds, about 1,100 (52%) were called active. The set was probably picked from earlier hits. This list was built around the results that the source calls inconclusive (neither active nor inactive); the mix of calls is not that of the screen. Calls come from the whole dose curve; as a rule, active = well fitted inhibition curve with a large enough effect; inconclusive = small, poorly fitted or top-dose-only effect; inactive = no such curve, though single readings can be large or run the other way. No potency is given beside an inconclusive call; the fits are too rough.
# Target: DNA dC->dU-editing enzyme APOBEC-3F (Homo sapiens) (UniProt Q8IUX4)
# Sequence of UniProt Q8IUX4 (Q8IUX4 whole entry, looked up): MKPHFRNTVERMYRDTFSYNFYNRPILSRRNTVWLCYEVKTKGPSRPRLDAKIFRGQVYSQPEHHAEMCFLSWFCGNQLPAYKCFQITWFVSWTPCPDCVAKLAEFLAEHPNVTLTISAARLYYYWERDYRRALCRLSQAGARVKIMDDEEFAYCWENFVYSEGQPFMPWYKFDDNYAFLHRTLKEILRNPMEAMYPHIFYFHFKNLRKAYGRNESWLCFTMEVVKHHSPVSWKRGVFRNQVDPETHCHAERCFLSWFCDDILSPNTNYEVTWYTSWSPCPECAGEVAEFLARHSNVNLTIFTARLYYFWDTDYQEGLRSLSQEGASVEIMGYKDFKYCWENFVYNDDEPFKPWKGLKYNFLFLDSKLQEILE
# Assay: qHTS for inhibitors of Vif-A3F interactions: Cherry picks counterscreen; note: nearly all actives have a fitted effect of over 65% in size
# Conditions: HeLa A3F-eYFP/Vif cells, eYFP fluorescence, 24 h; series mostly up to 36.9 µM; activity, negative = inhibitor: at the top concentration
# Description: The recent discovery and characterization of host restriction factors, which provide a potent defense to invading retroviruses, has provided new targets for antiviral drug development. APOBEC3G (A3G) and APOBEC3F (A3F) are potent cytidine deaminases that block HIV-1 replication; HIV-1 expresses the Vif protein, which counteracts A3G and A3F by binding to them and inducing their proteasomal degradation. The Vif-A3G and Vif-A3F interactions provide two potential targets for development of small molecules which can interfere with the ability of Vif to degrade A3G or A3F. […] To identify inhibitors that can interfere with Vif mediated degradation of A3G and A3F, we have developed Hela cell lines that stably express A3G or A3F tagged with eYFP at the C-terminal end (A3G-eYFP or A3F-eYFP, respectively) and Vif. In the absence of an inhibitor, Vif induces degradation of A3G-eYFP and A3F-eYFP, and the cells are not fluorescent. In the presence of an inhibitor, it is expected that Vif will be unable to degrade A3G-eYFP and/or A3F-eYFP, resulting in an increase in yellow fluorescence. In this counterscreen assay, Vif A3F was screened against the cherry picks ordered from the MLSMR. NIH Chemical Genomics Center [NCGC] NIH Molecular Libraries Probe Centers Network [MLPCN] MLPCN Grant: MH093245 Assay Submitter (PI): Vinay Pathak, National Cancer Institute
# A3F-Vif cells were harvested from T225 flask and resuspended in phenol free OPTI-MEM medium with 5% FBS. Then 5 uL of 140,000 cells/mL resuspended cells was dispensed into each well of low base Aurora COC 1,536-well plates (black walled, clear bottom) using a Multidrop Combi dispenser. After overnight culture at 37 deg C with 5% CO2, a total of 23 nL of compounds at 5 selected concentrations from the NPC or positive control (2 mM stock of MG132) in DMSO was transferred to each well of the assay plate using a pintool (Kalypsys, San Diego, CA), and the plates were further incubated at 37 deg C with 5% CO2 for 24 hours. After that, the plates were measured on Acumen Explorer (TTP Lab Tech). The fluorescence was detected by 488 nm/Ex and […].
# % is set by controls: 0 for no effect and ±100 for the full control effect; potency is the fitted concentration of half-maximal effect; tags give direction and shape of the fitted curve.
SMILES,Potency,"activity, negative = inhibitor"
Cc1cccc(-n2c(/C=C/c3c(C)[nH]c4ccccc34)nc3ccccc3c2=O)c1,active: 18.4 µM,–
O=c1nc(/C=C/c2ccc(Cl)cc2Cl)cc(C(F)(F)F)[nH]1,"inconclusive [inhibitor, single point]",–
COc1ccc(C(=O)Nc2ccc3c(c2)N(C)C(=O)c2ccccc2S3)cc1OC,"inconclusive [inhibitor, full curve]",–
COc1cc2c(cc1O)[C@@H]1Cc3ccc(OC)c(O)c3CN1CC2,"inconclusive [inhibitor, partial curve]",–
O=c1c2ccccc2nc(/C=C/c2ccccc2O)n1-c1ccc(Br)cc1,"inconclusive [inhibitor, single point]",–
O=c1c2ccccc2nc(/C=C/c2ccc(F)cc2)n1-c1ccccc1O,"inconclusive [inhibitor, single point]",–
Cc1ccccc1-n1c(O)c(/C=C/C=Nc2ccccc2)c(=O)[nH]c1=O,"inconclusive [inhibitor, single point]",–
CC(C)CCCn1c(O)c(/C=C2/C=CC=N2)c(=O)[nH]c1=O,"inconclusive [inhibitor, single point]",–
CCN1C(=O)/C(=C/c2ccc(N(CC)CC)cc2OC)C(=O)NC1=S,"inconclusive [inhibitor, single point]",–
O=C1NC(=O)N(Cc2ccc(F)cc2)C(=O)/C1=C\c1ccoc1,"inconclusive [inhibitor, single point]",–
CCCCn1c(N)c(N(CC(C)C)C(=O)c2cc(Br)c(Br)s2)c(=O)[nH]c1=O,"inconclusive [inhibitor, single point]",–
O=C1CN=C(c2cccc(Br)c2)c2cc(Br)ccc2N1,"inconclusive [inhibitor, single point]",–
Cc1ccc(-n2c(O)c(/C=C3/C(c4ccccc4)=Nc4ccccc43)c(=O)[nH]c2=O)cc1,"inconclusive [inhibitor, full curve, poor fit]",–
O=C1NC(=S)SC1=Cc1ccc(N(CCCl)CCCl)cc1,active: 17.7 µM,–
CC(C)N1C(=O)/C(=C/C=C/c2ccco2)C(=O)N(Cc2ccco2)C1=O,"inconclusive [inhibitor, single point]",–
Cc1cc(/C=C2\C(=O)NC(=O)N(c3ccc(Br)cc3)C2=O)c(C)n1C,–,inactive: -29.9%
N#CC1=C(N)Oc2c(c(=O)sc3ccccc23)C1c1cccnc1 (stereo not given),active: 3.14 µM,–
C/C(=C\c1ccc(N(C)C)cc1)[N+](=O)[O-],"inconclusive [inhibitor, single point]",–
O=c1[nH]c(O)c(/C=C2\C=Nc3ccc(OCc4ccccc4)cc32)c(=O)[nH]1,"inconclusive [inhibitor, single point]",–
CCN(CC)c1ccc(/C=C/[N+](=O)[O-])cc1,"inconclusive [inhibitor, single point]",–

SMILES,Potency,"activity, negative = inhibitor"
CC/C(=N\NC(=O)c1ccccc1O)c1c(O)n(Cc2ccccc2)c(=O)[nH]c1=O,active: 18.4 µM,–
O=C1/C(=C/c2ccc3c(c2)OCO3)SC(=S)N1CCC(=O)N(CCO)c1ccccc1,"inconclusive [inhibitor, single point]",–
Cc1c2ccncc2c(C)c2c1[nH]c1ccccc12,"inconclusive [inhibitor, single point]",–
Cc1cc(C)cc(N2C(=O)NC(=O)/C(=C\C=C\c3ccco3)C2=O)c1,"inconclusive [inhibitor, single point]",–
COc1ccc2nc(NC(=O)c3nc(S(=O)(=O)Cc4cccc(C)c4)ncc3Cl)sc2c1,"inconclusive [inhibitor, partial curve]",–
COCCCNC(=O)c1c(NC(=O)c2ccco2)n(Cc2ccccc2)c2nc3ccccc3nc12,–,inactive: -8.65%
Cc1cccc(CN2CCCC(C(=O)c3cccc(OC(C)C)c3)C2)n1 (stereo not given),–,inactive: 24.3% [at 46.1 µM]
Cc1ccc(-n2c(=O)c3ccc(C(=O)NCc4ccccc4Cl)cc3n(CC(=O)Nc3cccc(Cl)c3)c2=O)cc1,"inconclusive [inhibitor, partial curve]",–
COc1cc(/C=C/C(=O)c2c(O)n(CCc3ccccc3)c(=O)[nH]c2=O)ccc1O,"inconclusive [inhibitor, single point]",–
Cc1ccc(CNC(=O)c2ccccc2NC(=O)c2nsc3ccccc23)cc1,"inconclusive [inhibitor, single point]",–
COCCNC(=O)c1c(NC(=O)c2ccc(Br)o2)n(Cc2ccccc2)c2nc3ccccc3nc12,"inconclusive [inhibitor, single point]",–
CCN1C(=O)C(=C/C=C/c2ccco2)C(=O)N(CC)C1=S,"inconclusive [inhibitor, single point]",–
CCCCCn1c(NC(=O)c2ccco2)c(C(=O)OCC)c2nc3ccccc3nc21,"inconclusive [inhibitor, single point]",–
CCN(CC)c1ccc(/C=C2\C(=O)NC(=S)N(C)C2=O)o1,active: 0.559 µM,–
Cc1nn(Cc2ccccc2)c(C)c1C(=O)OCC(=O)Nc1ccccc1SCC#N,"inconclusive [inhibitor, single point]",–
Cc1ccc(/C=C2/C(=O)NC(=O)N(CCc3ccc(F)cc3)C2=O)s1,"inconclusive [inhibitor, single point]",–
ClCCN(CCCl)c1ccc(C=Cc2ccncn2)cc1,"inconclusive [inhibitor, single point]",–
O=C(Cc1ccccc1)c1ccccn1,"inconclusive [inhibitor, single point]",–
Clc1ccc(-c2csc3ncnc(Sc4nnnn4C4CC4)c23)cc1,"inconclusive [inhibitor, partial curve, poor fit]",–
Cc1cccc(N2C(=O)NC(=O)/C(=C\C=C\c3ccco3)C2=O)c1,"inconclusive [inhibitor, single point]",–
